Laboratory results taken from paper PMC4336329 (PLoS ONE, 2015).
Screen size: about 310,000 compounds; about 14,000 (4.5%) showed an effect of 50% or more. The effect is printed as a negative number. The list shows a part of the results.

target: human ether-à-go-go-related gene (hERG) potassium channel (human, UniProt Q12809); assay: primary screen, population patch clamp on CHO cells stably expressing hERG
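Further: peak tail current of the secondary pulse compared with the same well before compound.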

Chain of human ether-à-go-go-related gene (hERG) potassium channel (Q12809 whole entry, looked up): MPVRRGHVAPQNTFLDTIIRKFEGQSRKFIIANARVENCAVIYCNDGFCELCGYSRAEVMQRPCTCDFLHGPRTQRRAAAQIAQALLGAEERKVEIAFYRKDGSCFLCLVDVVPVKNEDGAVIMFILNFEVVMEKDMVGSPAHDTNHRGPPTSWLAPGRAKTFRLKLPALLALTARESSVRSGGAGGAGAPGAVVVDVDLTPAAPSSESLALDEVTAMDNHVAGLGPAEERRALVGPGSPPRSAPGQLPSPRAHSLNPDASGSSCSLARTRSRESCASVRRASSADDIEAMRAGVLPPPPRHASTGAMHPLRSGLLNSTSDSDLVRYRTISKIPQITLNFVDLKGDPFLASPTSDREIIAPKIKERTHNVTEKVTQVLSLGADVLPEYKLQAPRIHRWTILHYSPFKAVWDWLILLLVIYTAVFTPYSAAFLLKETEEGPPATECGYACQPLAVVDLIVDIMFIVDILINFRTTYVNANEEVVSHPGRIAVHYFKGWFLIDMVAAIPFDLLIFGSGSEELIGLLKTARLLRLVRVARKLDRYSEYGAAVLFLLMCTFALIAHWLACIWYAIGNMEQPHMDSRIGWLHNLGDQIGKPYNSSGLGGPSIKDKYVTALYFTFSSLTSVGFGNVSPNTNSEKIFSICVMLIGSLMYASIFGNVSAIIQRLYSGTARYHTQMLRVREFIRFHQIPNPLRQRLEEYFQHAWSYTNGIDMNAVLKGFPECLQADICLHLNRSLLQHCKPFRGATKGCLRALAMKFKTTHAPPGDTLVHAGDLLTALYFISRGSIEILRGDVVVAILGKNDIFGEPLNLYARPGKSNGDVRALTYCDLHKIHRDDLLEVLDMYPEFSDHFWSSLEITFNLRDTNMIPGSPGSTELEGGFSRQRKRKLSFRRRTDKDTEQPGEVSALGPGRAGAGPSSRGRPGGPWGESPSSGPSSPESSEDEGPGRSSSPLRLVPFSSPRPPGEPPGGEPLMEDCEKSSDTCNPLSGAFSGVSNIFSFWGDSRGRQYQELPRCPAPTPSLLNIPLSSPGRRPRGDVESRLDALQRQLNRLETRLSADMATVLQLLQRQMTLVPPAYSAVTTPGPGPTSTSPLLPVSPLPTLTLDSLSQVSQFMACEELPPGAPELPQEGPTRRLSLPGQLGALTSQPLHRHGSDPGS

SMILES	hERG current change (%, negative = inhibition) at 10uM [%]
O=C(COc1ccccc1F)Nc1nnc(C2CCCC2)s1	17.3
COc1cccc(C(=O)COC(=O)CCCC(=O)NC2CCCCC2)c1	1.29
COc1ccc(-c2nnc(SCc3nnc(-c4ccccc4)o3)n2-c2ccccc2)cc1	-9.78
CCCC(c1nnnn1CCC(C)C)N1CCC(C(N)=O)CC1.Cl (stereo not shown)	1.29
Cc1cccc(Nc2nc(N)c([N+](=O)[O-])c(NCCO)n2)c1	-33.8
CCOC(=O)c1cc(C#N)c(Oc2ccccc2OC)nc1-c1ccccc1	11.3
CCCC(C(=O)NCc1ccccc1)N(C(=O)Cn1nnc(-c2cccs2)n1)c1ccc2c(c1)OCCO2 (stereo not shown)	17.2
CCOC(=O)c1nnn2c1nc(N1CCOCC1)c1ccccc12	-20.4
Br.CCn1c(=N)n(CC(=O)c2ccc(Br)s2)c2ccccc21	-69.3
Cc1cccc(-n2c(-c3ccncc3)n[nH]c2=S)c1	16
CSc1ccc(C2NC(=O)c3ccccc3N2)cc1 (stereo not shown)	5.54
Cc1ccc2cc(CCNC(=O)c3cccs3)c(=O)[nH]c2c1C	-0.17
CCN(CC)S(=O)(=O)c1ccc(S(=O)(=O)N2CCC(C(=O)NC3CCN(Cc4ccccc4)CC3)CC2)cc1	14.8
Cc1ccc2oc(=O)c3cnn(CC(=O)NC4CCC(C)CC4)c3c2c1 (stereo not shown)	-4.77
C=CCn1c(SCc2ccc(C(=O)O)cc2)nc2sc(C)c(C)c2c1=O	-4.36
OCCN1CCN(Cc2ccc3ccccc3c2)CC1	16.3
CSc1nc2ccc3nc(NC(=O)c4ccc(Cl)s4)sc3c2s1	1.39
O=C(Nc1ccc2c(c1)OCO2)C1CC(c2ccccc2O)=NO1 (stereo not shown)	13.9
CCCCN(CCCNC(=O)c1ccc(CS(=O)(=O)c2c(Cl)cccc2Cl)o1)Cc1ccccc1	-66.1
CCOC(=O)C1=NN(C(=O)c2ccco2)C2(CC2)C1	-7.7
O=C(Cc1c[nH]c2ccccc12)NC1(C(=O)NC2CCCC2)CCCCC1	14.2
CC(C)c1nnc(-c2ccc(Cl)cc2)c(N(C)C)n1	-15

SMILES	hERG current change (%, negative = inhibition) at 10uM [%]
COc1cccc(NC(=O)N(CCCN2CCOCC2)C(C)c2cc3ccccc3o2)c1 (stereo not shown)	-62.5
Cc1cccc(NC(=O)CSc2nnc(NC(=O)c3ccco3)s2)c1	19.3
CC1Cc2ccccc2N1C(=O)C1CCN(S(=O)(=O)c2cccs2)CC1 (stereo not shown)	6.09
CCn1c(COC(=O)CNC(=O)c2cc(OC)c(OC)c(OC)c2)nc2cc(S(=O)(=O)N(C)C)ccc21	-27.9
CCN1C(=NCCN2CCOCC2)N[C@@H](c2ccccc2)C(C(=O)OC)=C1C	7.6
O=C(O)CCCC(=O)N1CCN(c2nc(-c3ccccc3Cl)c3cc(Br)ccc3n2)CC1	-0.347
COc1cc2c(cc1OC)CN(C(=O)CSc1nnc3scc(-c4ccccc4)n13)CC2	-9.96
C=CCS/C(=N\n1cnc2ccccc2c1=O)N(CC)CC	12.5
COc1ccccc1CNS(=O)(=O)c1cc(C)ccc1OC	9.32
Cc1cc(C(=O)COC(=O)c2ccc[nH]c2=O)c(C)n1C	3.61
CC(C)c1ccccc1NC(=S)NCc1ccncc1	12.6
COc1ccc(NS(=O)(=O)c2ccc(O)c(C(=O)OCC(=O)N3CC(C)OC(C)C3)c2)cc1 (stereo not shown)	4.92
CCCNC(=O)c1onc(CSc2ccc(Cl)cc2)c1C(=O)NCC1CC1	-8.67
C/C(=C\c1ccccc1)C(=O)N1CCN(c2cccc(C(F)(F)F)c2)CC1	-9.89
O=c1[nH]c(=O)n(C2CCCO2)cc1F (stereo not shown)	-1.29
Cc1cccc(CN2CCC(C(=O)Nc3cccc(-c4cscn4)c3)CC2)n1	-48.2
O=C(C1CCC(CNS(=O)(=O)c2cccs2)CC1)N1CCN(c2ccc(Cl)cc2)CC1 (stereo not shown)	-14.1
CC(O)CNc1nc(Cl)c(C#N)s1 (stereo not shown)	2.88
COc1ccc(CNC(=O)CCS(=O)(=O)c2ccc3c(c2)NC(=O)C(C)S3)cc1 (stereo not shown)	9.08
CCOc1ccc(-c2csc(NC(=O)C3CCCO3)n2)cc1 (stereo not shown)	4.35
O=C(NC1CCCCC1)N1CCN(Cc2nc3ccccc3c(=O)[nH]2)CC1	-24.3
